# According to the supplement of paper PMC10037445:
# In all, about 2,900 compounds were measured (“IRF Lucia reporter activity, fold change vs agonist alone”: median about 0.9, highest 2% from about 2.8 on). The list shows a part of the results.
# Tests used:
# RAW-Dual [1] = experiment: IRF Lucia reporter activity, fold change vs agonist alone; higher = enhanced IRF activity; conditions: agonist: MPLA (TLR4) […]
# In short: (§1)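 Supernatant from RAW-Dual macrophages was read after 20 hours for IRF by QuantiLuc luminescence and for NF-κB by QuantiBlue absorbance at 620 nm. The cells (50,000 cells/well in DMEM, 384-well plates, 37 °C, 5% CO2) had received 50 nL of library stock by pin tool and, 1 h later, a PRR agonist. Reporter activity is expressed relative to agonist-alone wells as fold change, and wells were flagged cytotoxic if IncuCyte confluency was under 70% of agonist controls in both mask sets.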
# RAW-Dual [2] = experiment: IRF Lucia reporter activity, fold change vs agonist alone; cytotoxicity flag (confluency mask): not cytotoxic; higher = enhanced IRF activity
# In short: as §1
# RAW-Dual [3] = experiment: IRF Lucia reporter activity, fold change vs agonist alone; cytotoxicity flag (confluency mask): cytotoxic (confluency <70% of control); higher = enhanced IRF activity
# In short: as §1
# [4] = library stock concentration (final ~1000-fold dilution): 10 mM, cytotoxicity flag (confluency mask): not cytotoxic
# [5] = agonist: 3'3'-cGAMP (STING) 10 ug/mL
# [6] = library stock concentration (final ~1000-fold dilution): 10 mM water, cytotoxicity flag (confluency mask): not cytotoxic
# [7] = library stock concentration (final ~1000-fold dilution): 10 mM, cytotoxicity flag (confluency mask): cytotoxic (confluency <70% of control)
structure (smiles),measurement,setting,value
Cn1cc(C2=C(c3ccc(Cl)cc3Cl)C(=O)NC2=O)c2ccccc21,IRF Lucia reporter activity,RAW-Dual [1]; [4],0.641
Cc1ccc(-c2n[nH]c3c2C(c2cccc(O)c2)N(c2ccc(C(=O)O)cc2)C3=O)cc1 (stereo not given) (library stock concentration (final ~1000-fold dilution): 10 mM),IRF Lucia reporter activity,RAW-Dual [2]; [5],0.964
same,IRF Lucia reporter activity,RAW-Dual [2]; agonist: LPS (TLR4) 0.1 ug/mL,0.947
Cc1nn(CC(F)(F)F)cc1Nc1ncc(Br)c(NCc2ccc(S(N)(=O)=O)cc2)n1 (library stock concentration (final ~1000-fold dilution): 10 mM),IRF Lucia reporter activity,RAW-Dual [2]; [5],0.0135
same,IRF Lucia reporter activity,RAW-Dual [2]; agonist: LPS (TLR4) 0.1 ug/mL,0.0166
Cc1nc(Nc2ncc(C(=O)Nc3c(C)cccc3Cl)s2)cc(N2CCN(CCO)CC2)n1.O (library stock concentration (final ~1000-fold dilution): 10 mM),IRF Lucia reporter activity,RAW-Dual [2]; [5],0.0381
same,IRF Lucia reporter activity,RAW-Dual [2]; agonist: LPS (TLR4) 0.1 ug/mL,0.852
Cc1ccc(C(=O)O)c(O)c1,IRF Lucia reporter activity,RAW-Dual [1]; [4],1.02
Cc1ccc(C(=O)O)c(O)c1 (library stock concentration (final ~1000-fold dilution): 10 mM),IRF Lucia reporter activity,RAW-Dual [2]; [5],0.982
same,IRF Lucia reporter activity,RAW-Dual [2]; agonist: LPS (TLR4) 0.1 ug/mL,1.43
CCOC(=O)NCCCC(=O)NCCc1ccccc1 (library stock concentration (final ~1000-fold dilution): 10 mM),IRF Lucia reporter activity,RAW-Dual [2]; [5],0.764
same,IRF Lucia reporter activity,RAW-Dual [2]; agonist: LPS (TLR4) 0.1 ug/mL,0.892
Cc1cccc(C)c1OCC(=O)NC(Cc1ccccc1)C(O)CC(Cc1ccccc1)NC(=O)C(C(C)C)N1CCCNC1=O (stereo not given) (library stock concentration (final ~1000-fold dilution): 10 mM),IRF Lucia reporter activity,RAW-Dual [2]; [5],0.326
same,IRF Lucia reporter activity,RAW-Dual [2]; agonist: LPS (TLR4) 0.1 ug/mL,1.52
Cc1cccc(C)c1OCC(=O)NC(Cc1ccccc1)C(O)CC(Cc1ccccc1)NC(=O)C(C(C)C)N1CCCNC1=O (stereo not given),IRF Lucia reporter activity,RAW-Dual [1]; [4],0.854
COc1cc2c(cc1NS(=O)(=O)c1ccc(Br)cc1C)n(C)c(=O)n2C (library stock concentration (final ~1000-fold dilution): 10 mM),IRF Lucia reporter activity,RAW-Dual [2]; [5],0.88
same,IRF Lucia reporter activity,RAW-Dual [2]; agonist: LPS (TLR4) 0.1 ug/mL,0.909
Cl.NCCCC(N)(C(=O)O)C(F)F.O (stereo not given) (library stock concentration (final ~1000-fold dilution): 10 mM water),IRF Lucia reporter activity,RAW-Dual [2]; [5],1.23
same,IRF Lucia reporter activity,RAW-Dual [2]; agonist: LPS (TLR4) 0.1 ug/mL,0.959
Cl.NCCCC(N)(C(=O)O)C(F)F.O (stereo not given),IRF Lucia reporter activity,RAW-Dual [1]; [6],1.17
CNCCC=C1c2ccccc2CCc2ccccc21.Cl,IRF Lucia reporter activity,RAW-Dual [1]; [7],1.38
CNCCC=C1c2ccccc2CCc2ccccc21.Cl (library stock concentration (final ~1000-fold dilution): 10 mM),IRF Lucia reporter activity,RAW-Dual [3]; [5],0.464
same,IRF Lucia reporter activity,RAW-Dual [3]; agonist: LPS (TLR4) 0.1 ug/mL,1.52
O=C(O)CCC(=O)O.O=C(OC1CN2CCC1CC2)N1CCc2ccccc2C1c1ccccc1 (stereo not given),IRF Lucia reporter activity,RAW-Dual [1]; [6],1.43
O=C(O)CCC(=O)O.O=C(OC1CN2CCC1CC2)N1CCc2ccccc2C1c1ccccc1 (stereo not given) (library stock concentration (final ~1000-fold dilution): 10 mM water),IRF Lucia reporter activity,RAW-Dual [2]; [5],0.266
same,IRF Lucia reporter activity,RAW-Dual [2]; agonist: LPS (TLR4) 0.1 ug/mL,0.748
COc1ccnc(CS(=O)c2nc3ccc(-n4cccc4)cc3[nH]2)c1C (stereo not given),IRF Lucia reporter activity,RAW-Dual [1]; [4],0.977
COc1ccnc(CS(=O)c2nc3ccc(-n4cccc4)cc3[nH]2)c1C (stereo not given) (library stock concentration (final ~1000-fold dilution): 10 mM),IRF Lucia reporter activity,RAW-Dual [2]; [5],0.939
same,IRF Lucia reporter activity,RAW-Dual [2]; agonist: LPS (TLR4) 0.1 ug/mL,1.02
CCN(CC)CCN(Cc1ccc(-c2ccc(C(F)(F)F)cc2)cc1)C(=O)Cn1c(SCc2ccc(F)cc2)nc(=O)c2c1CCC2 (library stock concentration (final ~1000-fold dilution): 10 mM),IRF Lucia reporter activity,RAW-Dual [3]; [5],0.014
same,IRF Lucia reporter activity,RAW-Dual [3]; agonist: LPS (TLR4) 0.1 ug/mL,0.111
CCN(CC)CCN(Cc1ccc(-c2ccc(C(F)(F)F)cc2)cc1)C(=O)Cn1c(SCc2ccc(F)cc2)nc(=O)c2c1CCC2,IRF Lucia reporter activity,RAW-Dual [1]; [7],0.0449
O=C(O[C@@H]1Cc2c(O)cc(O)cc2O[C@@H]1c1cc(O)c(O)c(O)c1)c1cc(O)c(O)c(O)c1 (library stock concentration (final ~1000-fold dilution): 10 mM),IRF Lucia reporter activity,RAW-Dual [2]; [5],0.57
same,IRF Lucia reporter activity,RAW-Dual [2]; agonist: LPS (TLR4) 0.1 ug/mL,1.06
COC(=O)c1ccc2c(c1)NC(=O)/C2=C(\Nc1ccc(N(C)C(=O)CN2CCN(C)CC2)cc1)c1ccccc1 (library stock concentration (final ~1000-fold dilution): 10 mM),IRF Lucia reporter activity,RAW-Dual [2]; [5],0.278
same,IRF Lucia reporter activity,RAW-Dual [2]; agonist: LPS (TLR4) 0.1 ug/mL,0.264
COC(=O)c1ccc2c(c1)NC(=O)/C2=C(\Nc1ccc(N(C)C(=O)CN2CCN(C)CC2)cc1)c1ccccc1,IRF Lucia reporter activity,RAW-Dual [1]; [4],0.289
CCOC(=O)Nc1ccc(NCc2ccc(F)cc2)nc1N.O=C(O)/C=C/C(=O)O,IRF Lucia reporter activity,RAW-Dual [1]; [4],1.02
CCOC(=O)Nc1ccc(NCc2ccc(F)cc2)nc1N.O=C(O)/C=C/C(=O)O (library stock concentration (final ~1000-fold dilution): 10 mM),IRF Lucia reporter activity,RAW-Dual [2]; [5],0.729
same,IRF Lucia reporter activity,RAW-Dual [2]; agonist: LPS (TLR4) 0.1 ug/mL,0.812
